Key:
[1] = target: T1, human full-length B7H3 expressed on MCF-7 cells (human, UniProt Q5ZPR3 29-534); test: cell-based or functional assay
T1 sequence: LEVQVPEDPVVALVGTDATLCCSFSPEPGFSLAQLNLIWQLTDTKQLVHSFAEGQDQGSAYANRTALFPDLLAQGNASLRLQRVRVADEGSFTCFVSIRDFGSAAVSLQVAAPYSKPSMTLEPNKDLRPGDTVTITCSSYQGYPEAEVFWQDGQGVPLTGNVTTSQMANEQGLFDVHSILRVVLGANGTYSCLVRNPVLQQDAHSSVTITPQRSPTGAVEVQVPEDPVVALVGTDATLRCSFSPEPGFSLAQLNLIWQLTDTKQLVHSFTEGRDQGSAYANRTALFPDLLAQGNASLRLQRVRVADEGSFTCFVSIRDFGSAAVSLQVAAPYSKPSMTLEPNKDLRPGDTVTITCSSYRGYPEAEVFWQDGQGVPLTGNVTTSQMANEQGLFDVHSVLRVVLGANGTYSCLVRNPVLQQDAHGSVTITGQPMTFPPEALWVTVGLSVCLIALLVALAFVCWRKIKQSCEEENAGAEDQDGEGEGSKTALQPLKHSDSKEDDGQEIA

[2] = target: T2, Human PD-L2, His Tag (confirmed by SPR) (human, UniProt Q9BQ51 20-219); test: ELISA, B7 family protein immobilized on plate, serially diluted antibody-drug conjugate
T2 construct: Bought protein; also called human PD-L2 protein; ACRO PD2-H5220; not shown: His tag
T2 sequence (looked up): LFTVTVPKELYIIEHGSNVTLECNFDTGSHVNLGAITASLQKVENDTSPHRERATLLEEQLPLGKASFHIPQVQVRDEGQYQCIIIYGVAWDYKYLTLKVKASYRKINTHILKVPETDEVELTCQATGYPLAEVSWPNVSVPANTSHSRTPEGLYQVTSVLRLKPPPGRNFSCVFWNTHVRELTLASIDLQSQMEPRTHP
Experimental: (§1) Human PD-Ll protein (see the table above), human B7-H2 protein, human B7-H3 protein, human B7-H4 protein, human B7-H5 protein, human B7-H6 protein, human B7-1 protein, human B7-2 protein, human PD-L2 protein, human B7-H7 protein, and human BTNL2 protein were separately immobilized on 96-well plates by incubation at 4° C. overnight. The 96-well plates were then blocked by incubation with 1% BSA in PBS at 37° C. for 1 h. After blocking, the 96-well plates were washed 3 times with PBST (PBS containing 0.05% Tween 20). […] After incubation, the 96-well plates were washed 3 times with PBST, incubated with a secondary antibody (see the table above) in binding buffer at 37° C. for 1 h, and then washed again. TMB was added for color development, and the reaction was stopped by 1 M H₂SO₄.

[3] = target: T3, Human B7-H4 protein, His Tag (human, UniProt Q7Z7D3 29-258); test: as above
T3 construct: Bought protein; also called ACRO B74-H5222; not shown: His tag
T3 sequence (looked up): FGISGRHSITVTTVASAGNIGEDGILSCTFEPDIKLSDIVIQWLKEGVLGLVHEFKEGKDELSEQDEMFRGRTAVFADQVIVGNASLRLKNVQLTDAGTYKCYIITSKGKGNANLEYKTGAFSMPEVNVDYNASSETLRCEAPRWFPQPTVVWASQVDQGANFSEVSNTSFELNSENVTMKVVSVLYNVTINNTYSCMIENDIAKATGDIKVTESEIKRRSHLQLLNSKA
Experimental: as §1

[4] = target: T4, Human PD-L1, His Tag (human, UniProt Q9NZQ7 fragment); test: as above
T4 construct: Bought protein; also called human PD-L1 protein; ACRO PD1-H5229; not shown: His tag
T4 sequence (Q9NZQ7 19-238 limits assumed): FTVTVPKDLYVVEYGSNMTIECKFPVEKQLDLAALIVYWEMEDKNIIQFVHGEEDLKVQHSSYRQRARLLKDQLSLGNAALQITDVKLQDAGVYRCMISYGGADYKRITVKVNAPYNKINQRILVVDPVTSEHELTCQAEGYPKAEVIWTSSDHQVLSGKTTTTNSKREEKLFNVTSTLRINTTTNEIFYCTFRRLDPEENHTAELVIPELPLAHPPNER
Experimental: as §1

[5] = target: T5, Human B7-H2, His Tag (human, UniProt O75144 19-258); test: as above
T5 construct: Bought protein; also called human B7-H2 protein; ACRO B72-H5221; not shown: His tag
T5 sequence (looked up): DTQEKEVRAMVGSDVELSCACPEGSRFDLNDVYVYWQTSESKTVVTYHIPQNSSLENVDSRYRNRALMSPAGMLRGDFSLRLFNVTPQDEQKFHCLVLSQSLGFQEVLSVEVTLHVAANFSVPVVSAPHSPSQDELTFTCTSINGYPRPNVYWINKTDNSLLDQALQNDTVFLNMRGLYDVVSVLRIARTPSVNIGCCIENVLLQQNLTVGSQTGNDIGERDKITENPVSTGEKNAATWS
Experimental: as §1

[6] = target: T6, Human B7-1 protein, His Tag (human, UniProt P33681 35-242); test: as above
T6 construct: Bought protein; also called ACRO B71-H5228; not shown: His tag
T6 sequence (looked up): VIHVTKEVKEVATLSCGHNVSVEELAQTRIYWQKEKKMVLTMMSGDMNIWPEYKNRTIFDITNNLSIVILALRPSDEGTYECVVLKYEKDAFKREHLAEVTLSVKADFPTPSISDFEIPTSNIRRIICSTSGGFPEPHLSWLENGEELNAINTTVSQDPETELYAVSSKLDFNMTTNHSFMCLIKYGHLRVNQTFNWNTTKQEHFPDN
Experimental: as §1

[7] = target: T7, Human B7-H7, His Tag (human, UniProt Q9UM44 23-344); test: as above
T7 construct: Bought protein; also called human B7-H7 protein; ACRO B77-H52H5; not shown: His tag
T7 sequence (looked up): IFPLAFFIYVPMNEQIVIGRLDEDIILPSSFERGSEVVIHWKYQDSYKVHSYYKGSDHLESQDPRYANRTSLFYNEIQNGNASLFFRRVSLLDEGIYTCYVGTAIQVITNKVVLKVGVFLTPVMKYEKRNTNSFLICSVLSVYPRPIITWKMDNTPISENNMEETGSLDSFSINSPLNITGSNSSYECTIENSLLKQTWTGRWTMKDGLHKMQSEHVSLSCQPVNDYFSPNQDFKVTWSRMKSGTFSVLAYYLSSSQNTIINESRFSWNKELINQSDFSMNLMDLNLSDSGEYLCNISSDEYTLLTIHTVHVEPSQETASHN
Experimental: as §1

[8] = target: T8, Human B7-2 protein, His Tag (human, UniProt P42081 24-247); test: as above
T8 construct: Bought protein; also called ACRO CD6-H5223; not shown: His tag
T8 sequence (looked up): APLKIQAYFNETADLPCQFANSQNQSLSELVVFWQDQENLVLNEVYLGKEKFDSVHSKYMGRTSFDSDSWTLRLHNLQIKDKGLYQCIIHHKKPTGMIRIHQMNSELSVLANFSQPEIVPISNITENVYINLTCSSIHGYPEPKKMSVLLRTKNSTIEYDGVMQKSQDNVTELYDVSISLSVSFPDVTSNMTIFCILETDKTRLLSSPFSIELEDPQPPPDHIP
Experimental: as §1

[9] = target: T9, Human B7-H5, His Tag (human, UniProt Q9H7M9 33-194); test: as above
T9 construct: Bought protein; also called human B7-H5 protein; ACRO B75-H52H0; not shown: His tag
T9 sequence (looked up): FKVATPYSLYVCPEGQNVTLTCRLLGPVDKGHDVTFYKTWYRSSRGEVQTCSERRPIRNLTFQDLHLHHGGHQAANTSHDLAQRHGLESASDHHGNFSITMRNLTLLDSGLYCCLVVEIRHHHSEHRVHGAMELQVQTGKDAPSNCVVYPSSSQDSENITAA
Experimental: as §1

[10] = target: T10, Human B7-H6 (human, UniProt Q68D85 25-262); test: as above
T10 construct: Bought protein; also called human B7-H6 protein; ACRO B76-H52H8
T10 sequence (looked up): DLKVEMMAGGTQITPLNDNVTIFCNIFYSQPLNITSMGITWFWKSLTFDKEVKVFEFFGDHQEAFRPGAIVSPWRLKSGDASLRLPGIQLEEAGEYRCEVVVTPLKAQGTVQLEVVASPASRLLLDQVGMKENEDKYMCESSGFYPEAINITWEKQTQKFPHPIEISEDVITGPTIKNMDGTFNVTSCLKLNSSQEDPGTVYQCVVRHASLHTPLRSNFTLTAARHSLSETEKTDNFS
Experimental: as §1

B1: antibody-drug conjugate WBP301088-X2 (DAR6) (other)
heavy: QVQLQESGPGLVKPSQTLSLTCTVTDYSITGDYAWNWIRQHPGKGLEWIGYISYSGSTSYNPSLQSRVTISRDTSKNQFSLKLSSVTAADTAVYFCARSLGRRWYFVVWGQGTTVTVSSASTKGPSVFPLAPSSKSTSGGTAALGCLVKDYFPEPVTVSWNSGALTSGVHTFPAVLQSSGLYSLSSVVTVPSSSLGTQTYICNVNHKPSNTKVDKRV[not shown - human IgG1 Fc with changes]
light: DIVMTQSPDSLAVSLGERATINCKSSQSLLQSSNQKNYLAWYQQKPGQPPKLLIYFASTRESGVPDRFSGSGSGTDFTLTISSLQAEDVAVYYCQQHYSAPWTFGGGTKVEIKRTVAAPSVFIFPPSDEQLKSGTASVVCLLNNFYPREAKVQWKVDNALQSGNSQESVTEQDSKDSTYSLSSTLTLSKADYEKHKVYACEVTHQGLSSPVTKSFNRGEC
modifications: linker-payload X2 conjugated after TCEP reduction of the antibody; drug loading (DAR) 5.68; positions not given
notes: also called Anti-B7H3 ADC WBP301088-X2 (DAR6)
[1]
  IC50 of inhibition of proliferation, A375 melanoma cells (CellTiter-Glo): 165 nM
  IC50 of inhibition of proliferation, A549 lung cancer cells (CellTiter-Glo): 369 nM
  IC50 of inhibition of proliferation, CAL-120 breast cancer cells (CellTiter-Glo): 269 nM
  IC50 of inhibition of proliferation, Calu-6 lung cancer cells (CellTiter-Glo): 52.3 nM
  IC50 of inhibition of proliferation, HT-29 colorectal cancer cells (CellTiter-Glo): 446 nM
  IC50 of inhibition of proliferation, MCF-7 breast cancer cells (CellTiter-Glo): 55.5 nM
  IC50 of inhibition of proliferation, NCI-H358 lung cancer cells (CellTiter-Glo): 11.4 nM
  IC50 of inhibition of proliferation, PC-3 prostate cancer cells (CellTiter-Glo): 181 nM
  IC50 of inhibition of proliferation, U87 MG brain cancer cells (CellTiter-Glo): 86.5 nM
[2]
  binding result: no binding
[3]
  binding result: no binding
[4]
  binding result: no binding
[5]
  binding result: no binding
[6]
  binding result: no binding
[7]
  binding result: no binding
[8]
  binding result: no binding
[9]
  binding result: no binding
[10]
  binding result: no binding

— patent US20240148892A1 (DUALITY BIOLOGICS SUZHOU, published 2024)
